From PubChem BioAssay AID2147 (National Center for Advancing Translational Sciences (NCATS), 2009)
Out of some 230,000 compounds screened, about 3,600 (1.6%) were called active. The shares of active, inactive and inconclusive entries below differ from those in the screen. Calls follow the shape of the dose curve; as a rule, active = well fitted inhibition curve with a large enough effect (not every such curve was filed as active); inconclusive = small, poorly fitted or top-dose-only effect, or another doubt; inactive = no such curve, though single readings can be large or run the other way. Where the call is inconclusive, the potency comes from a doubtful curve fit.

Each compound was assayed against Lysine-specific demethylase 4E (Homo sapiens) (UniProt B2RXH2) (assay: qHTS Assay for Inhibitors of Human Jumonji Domain Containing 2E (JMJD2E)). Details: JMJD2E catalytic domain, FDH-coupled NADH fluorescence (FDH is formaldehyde dehydrogenase); series mostly up to 57.1 µM.
Sequence of UniProt B2RXH2 (B2RXH2 whole entry, looked up, the tested form may be a part): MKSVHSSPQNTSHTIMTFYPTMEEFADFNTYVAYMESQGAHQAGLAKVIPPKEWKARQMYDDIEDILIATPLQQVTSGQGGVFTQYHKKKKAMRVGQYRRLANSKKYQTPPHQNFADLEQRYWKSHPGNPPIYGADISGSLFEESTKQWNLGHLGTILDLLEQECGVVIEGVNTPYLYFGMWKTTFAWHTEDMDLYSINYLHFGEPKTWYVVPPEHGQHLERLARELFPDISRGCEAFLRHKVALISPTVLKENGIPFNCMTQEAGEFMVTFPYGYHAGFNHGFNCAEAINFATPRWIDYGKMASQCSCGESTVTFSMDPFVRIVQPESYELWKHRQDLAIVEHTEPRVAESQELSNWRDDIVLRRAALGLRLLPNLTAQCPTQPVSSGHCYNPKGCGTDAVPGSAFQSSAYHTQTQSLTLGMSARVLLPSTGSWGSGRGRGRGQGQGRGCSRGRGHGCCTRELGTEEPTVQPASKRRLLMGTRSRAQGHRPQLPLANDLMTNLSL
Also: nearly all actives have a fitted effect of over 50% in size.
Potency is read from the fitted curve at half-maximal effect; tags tell the direction and shape of the fitted curve.

Row | Compound | Potency
1 | Cc1ccc(-n2c(C)cc(C(=O)CN3CCCCC3)c2C)cc1 | inactive
2 | O=c1cc(CO)oc(C(Nc2cccc(C(F)(F)F)c2)c2ccccn2)c1O (configuration not stated) | inconclusive: 25.1 µM [inhibitor, single point]
3 | CC(C)(C)Cc1nnc(NC(=O)Cc2ccc([N+](=O)[O-])cc2)s1 | inactive
4 | COc1cc2c(cc1OC)C1(O)C(=O)c3ccc(O)c(C(=O)O)c3OC1CO2 (configuration not stated) | inconclusive: 39.8 µM [inhibitor, single point]
5 | COC(=O)c1nn(-c2ccccc2)nc1-c1nn(-c2ccccc2)nc1C(=O)OC | inconclusive: 35.5 µM [inhibitor, single point]
6 | O=C/C(=C\Nc1ccc(C(=O)N2CCOCC2)cc1)c1nc2ccccc2o1 | inconclusive: 39.8 µM [inhibitor, single point]
7 | O=C1/C(=C/c2ccco2)Cc2ccccc21 | inconclusive: 28.2 µM [inhibitor, single point]
8 | NS(=O)(=O)c1ccc(N=C2C(=O)Nc3ccccc32)cc1 | inactive
9 | COc1ccc(Cl)cc1NC(=O)c1cc(-c2ccccc2O)n[nH]1 | inactive
10 | COc1cc(CNc2nc3ccccc3n2C)cc(OC)c1OC | inactive
11 | CC(=O)Nc1ccc(S(=O)(=O)NNC(=O)COc2ccc(Cl)cc2Cl)cc1 | inactive
12 | CCCC[n+]1c(C)sc2ccc(C)cc21 | inconclusive: 3.98 µM [inhibitor, full curve]
13 | COc1ccc(-n2c(C)cc(/C=C3\SC(=S)NC3=O)c2C)cc1 | inconclusive: 0.0282 µM [inhibitor, full curve, poor fit]
14 | CCS(=O)(=O)NCCc1csc(-c2ccc(OC)c(OC)c2)n1 | inconclusive: 28.2 µM [inhibitor, partial curve]
15 | Cn1c(C(=O)NCc2cccs2)cc2oc3ccccc3c21 | inconclusive: 35.5 µM [inhibitor, single point]
16 | COc1ccc(C2CC(c3ccccc3OC(C)=O)=NN2C(=O)/C=C/c2ccccc2)cc1OC (configuration not stated) | inconclusive: 35.5 µM [inhibitor, single point]
17 | O=C(NCCC(c1ccccc1)c1ccccc1)c1ccc(Br)o1 | inactive
18 | CCCC(=O)NCCc1c2n(c3ccc(OC)cc13)Cc1ccccc1-2 | inconclusive: 14.1 µM [inhibitor, partial curve]
19 | NC(=O)C[C@@H]1N[C@]2(C(=O)Nc3ccccc32)[C@@H]2C(=O)N(c3cc(C(F)(F)F)ccc3Cl)C(=O)[C@H]12 | inactive
20 | CN1/C(=C\C(=O)CSc2ncn[nH]2)C(C)(C)c2ccccc21 | inconclusive: 12.6 µM [inhibitor, partial curve]
21 | COC(=O)c1cc2c(cc1[N+](=O)[O-])OCO2 | inactive
22 | COc1ccccc1CNC(=S)Nc1ccc2nc(N3CCN(C)CC3)cc(C)c2c1 | inconclusive: 17.8 µM [inhibitor, partial curve]
23 | COc1cc(NC(=O)c2cc3ccccc3cc2O)c(OC)cc1Cl | inconclusive: 28.2 µM [inhibitor, partial curve]
24 | CCSc1nnc(NC(=O)c2cccnc2Cl)s1 | inactive

Row | Compound | Potency
25 | CCC1CCCCN1CC(O)Cn1c2ccccc2n2c(=O)cc(C)c(C#N)c12 (configuration not stated) | inconclusive: 35.5 µM [inhibitor, single point]
26 | O=C(CSc1nc2ccccc2s1)N1CCN(C(=O)c2ccco2)CC1 | inactive
27 | COc1ccc2[nH]cc(CC(=O)O)c2c1 | inconclusive: 25.1 µM [inhibitor, partial curve]
28 | OC(CNCC(c1ccco1)N1CCCCC1)c1ccccc1 (configuration not stated) | inconclusive: 4.47 µM [inhibitor, partial curve]
29 | O=C(c1cccs1)c1no[n+]([O-])c1C(=O)c1cccs1 | inconclusive: 39.8 µM [inhibitor, single point]
30 | COc1ccc(CCC(C)Nc2ccc(F)c(F)c2)cc1 (configuration not stated) | inactive
31 | Cc1ccc(O)c(N=NC2=C(O)CC(C)(C)CC2=O)c1 | active: 0.562 µM
32 | CCOc1ccccc1CN1CCN(Cc2[nH]c3ccccc3c2C)CC1CCO (configuration not stated) | inactive
33 | O=C(O)Cn1c(-c2cscn2)nc2ccccc21 | inconclusive: 31.6 µM [inhibitor, single point]
34 | COCCOC(=O)/C(=C/c1ccc(OC(=O)c2ccccc2)cc1)C(C)=O | inconclusive: 28.2 µM [inhibitor, single point]
35 | CN1CCc2c(sc(/N=C/c3cc(C(C)(C)C)ccc3O)c2C#N)C1 | inconclusive: 15.8 µM [inhibitor, partial curve]
36 | COc1cc([N+](=O)[O-])ccc1NC(=O)CCCOc1cc(C)ccc1C | inactive
37 | Nc1nc(SCC(=O)NC2CCCCCC2)[nH]c(=O)c1-c1ccccc1 | inconclusive: 39.8 µM [inhibitor, single point]
38 | O=C(C(c1ccccc1)c1ccccc1)N1CCN(Cc2ccncc2)CC1 | inconclusive: 25.1 µM [inhibitor, single point]
39 | O=C(CNC(=S)N(Cc1ccccc1F)C1CCCCC1)NC1CC1 | inactive
40 | COCCCNC(=O)CN(CCc1ccccc1)S(=O)(=O)c1ccc(OC)cc1 | inactive
41 | CCOc1cc(-c2nc3cc(C)ccn3c2NCC2CCCO2)ccc1O (configuration not stated) | inconclusive: 28.2 µM [inhibitor, partial curve]
42 | Nc1nonc1C(=O)NC(c1ccccc1)c1ccccc1 | inactive
43 | CCOC(=O)N1CC=C2C(C#N)=C(N)C(C#N)(C#N)[C@H](c3cccs3)[C@H]2C1 | inconclusive: 39.8 µM [inhibitor, single point]
44 | CCn1cc(/C=N\NC(=O)c2ccccc2Cl)cn1 | inconclusive: 35.5 µM [inhibitor, single point]
45 | Nc1nc(C2CC(=O)OC23CCCCC3)cs1 (configuration not stated) | inactive
46 | CN(C)c1cccc2c1c(NC(=O)Nc1ccc(F)cc1F)nn2C | inconclusive: 14.1 µM [inhibitor, partial curve]
47 | N#Cc1cc(C(=O)c2cc(Br)ccc2O)cn(C2CC2)c1=O | inconclusive: 31.6 µM [inhibitor, single point]
48 | CCC(Sc1ncccc1C(=O)Oc1cccc([N+](=O)[O-])c1)C(=O)Nc1ccccc1OC (configuration not stated) | inconclusive: 31.6 µM [inhibitor, single point]

Row | Compound | Potency
49 | COc1ccc(OCC(=O)Nc2cccc(-c3nc4ccccc4o3)c2)cc1 | inconclusive: 35.5 µM [inhibitor, single point]
50 | Cc1ccnc(NS(=O)(=O)c2ccc(C(C)(C)C)cc2)c1 | inconclusive: 28.2 µM [inhibitor, single point]
51 | Cc1ccn(-c2cc(O)c(-n3ccc(C)n3)cc2O)n1 | inconclusive: 3.55 µM [inhibitor, full curve]
52 | COc1ccc(NC(=O)c2oc3ccccc3c2NC(=O)c2ccc3c(c2)OCO3)cc1 | inconclusive: 31.6 µM [inhibitor, partial curve]
53 | CCn1cc(C(=O)O)c(=O)c2cc(F)c(N3CCN(C(=S)Nc4ccccc4OC)CC3)cc21 | inconclusive: 28.2 µM [inhibitor, partial curve]
54 | Cc1ccc2c(c1)COc1c3ccc(C(=O)NCCO)cc3nn1-2 | inconclusive: 25.1 µM [inhibitor, partial curve]
55 | COc1ccc(-n2cc(CNCCc3ncc(C)[nH]3)c(-c3ccccc3Cl)n2)cc1 | inconclusive: 39.8 µM [inhibitor, single point]
56 | CC(=O)Oc1ccc(C(C)=O)c2c1OCCO2 | inconclusive: 35.5 µM [inhibitor, single point]
57 | Nn1cnc2scc(-c3cccs3)c2c1=O | inconclusive: 31.6 µM [inhibitor, single point]
58 | COc1cc2ccccc2cc1C(=O)OCC(=O)NC1CCS(=O)(=O)C1 (configuration not stated) | inconclusive: 28.2 µM [inhibitor, partial curve]
59 | c1ccc(-c2ccccc2OCCCN2CCCCCC2)cc1 | inconclusive: 11.2 µM [inhibitor, partial curve, poor fit]
60 | Cc1ccc(C(=O)Nn2cnnc2)cc1S(=O)(=O)N1CCOCC1 | inactive
61 | CCCNC(=O)NC(=O)COC(=O)c1oc2ccc(OCC)cc2c1C | inconclusive: 20 µM [inhibitor, partial curve]
62 | COc1cc(/C=C/C(=O)N2CCCCC2=O)cc(OC)c1OC | inactive
63 | COC(=O)[C@H](COC(C)(C)C)NC(=O)O[C@@H]1C(=O)c2cc(OC)ccc2O[C@H]1c1ccc(OC)c(Br)c1 | inconclusive: 35.5 µM [inhibitor, single point]
64 | Cc1cc(OCCN2CCCC2)cc(C(C)C)c1 | inconclusive: 39.8 µM [inhibitor, single point]
65 | CS(=O)(=O)N1CCN(c2ccccc2NC(=O)CSc2nnc(-c3ccco3)o2)CC1 | inactive
66 | CC(/C=N/NC(=O)c1sc(N)nc1C)=C\c1ccccc1 | inconclusive: 35.5 µM [inhibitor, single point]
67 | Cc1cc(NC(=O)CN2CCCCC2)no1 | inconclusive: 20 µM [inhibitor, single point]
68 | CC1CN(C2=Nc3cccc4cccc2c34)CC(C)O1 (configuration not stated) | inconclusive: 39.8 µM [inhibitor, single point]
69 | O=C(COc1cccc2ccccc12)N/N=C/c1ccc(Sc2nc3ccccc3s2)o1 | inconclusive: 39.8 µM [inhibitor, single point]
70 | c1ccc(-c2nc(-c3cccc4ccccc34)c(Nc3ccc4ccccc4c3)o2)cc1 | inactive
71 | O=C(Nc1cccc(S(=O)(=O)NC2=NCCCCC2)c1)C1COc2ccccc2O1 (configuration not stated) | inactive
72 | COc1ccc2nc(SCC(=O)N3CCCCC3)c(C#N)cc2c1 | inconclusive: 39.8 µM [inhibitor, single point]
